{"source": "paper PMC6212790", "note": "The other results are listed elsewhere or left out. At the low end of the ranking, values are background and their order means little."}
{"target": "T1, GST-Rok (full length) (UniProt O34857)", "T1 sequence": "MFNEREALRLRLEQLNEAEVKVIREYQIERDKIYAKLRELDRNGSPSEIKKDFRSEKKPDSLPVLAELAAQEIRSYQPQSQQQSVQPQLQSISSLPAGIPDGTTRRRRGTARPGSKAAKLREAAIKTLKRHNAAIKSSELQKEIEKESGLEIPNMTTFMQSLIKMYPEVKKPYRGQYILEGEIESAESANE", "test": "protein binding microarray;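 further: rank score from −0.5 (least bound) to 0.5 (best bound)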", "details": "Rok is a gene silencer of Bacillus subtilis; high values mean tight binding; most listed sequences are background and not binding sites; double strand, one strand shown", "units": {"binding signal": "E-score"}}
{"sequence": "CGCGCGCA", "binding signal": 0.14}
{"sequence": "CGAGCAGA", "binding signal": -0.105}
{"sequence": "GAGCTCAC", "binding signal": -0.145}
{"sequence": "TATTTCGA", "binding signal": 0.235}
{"sequence": "GCCCCGAA", "binding signal": -0.136}
{"sequence": "AATGACAC", "binding signal": -0.00549}
{"sequence": "GACAGGCC", "binding signal": -0.286}
{"sequence": "ACTTTTAG", "binding signal": 0.0682}
{"sequence": "CGCCAATC", "binding signal": -0.127}
{"sequence": "ACGTCCCC", "binding signal": -0.306}
{"sequence": "GAATTTCC", "binding signal": -0.0058}
{"sequence": "AGCACGTC", "binding signal": -0.0902}
{"sequence": "CACTCAGA", "binding signal": -0.0327}
{"sequence": "GGAACAAA", "binding signal": 0.0514}
{"sequence": "ACGAGTAC", "binding signal": 0.171}
{"sequence": "GAACATAC", "binding signal": 0.101}
{"sequence": "TACGCGCA", "binding signal": -0.0904}
{"sequence": "ACGTAGTA", "binding signal": 0.24}
{"sequence": "AGCTTCCA", "binding signal": -0.0198}
{"sequence": "CTGCCAAC", "binding signal": -0.103}
{"sequence": "GACCGGAA", "binding signal": 0.0269}
{"sequence": "CCCATAAG", "binding signal": -0.19}
{"sequence": "CATTTTAC", "binding signal": 0.349}
{"sequence": "AGGATCCT", "binding signal": -0.0466}
{"sequence": "TAACAGAA", "binding signal": 0.205}
{"sequence": "AGTAGGAA", "binding signal": 0.231}
{"sequence": "CGCTTACG", "binding signal": 0.058}
{"sequence": "GCACTAAC", "binding signal": -0.161}
{"sequence": "TAATGGTA", "binding signal": 0.387}
{"sequence": "CACGAGGA", "binding signal": -0.174}
{"sequence": "ATCGTCAT", "binding signal": 0.0846}
{"sequence": "CGTCGAAC", "binding signal": -0.092}
{"sequence": "GCAGTACC", "binding signal": -0.189}
{"sequence": "GCGGAACA", "binding signal": 0.0356}
{"sequence": "AGAGGGTA", "binding signal": -0.0286}
{"sequence": "AATCGCCC", "binding signal": -0.137}
{"sequence": "AACGATCA", "binding signal": 0.00961}
{"sequence": "AACTGTGT", "binding signal": -0.00841}
{"sequence": "GAAGCTGA", "binding signal": 0.0384}
{"sequence": "CGTCCGGA", "binding signal": -0.0158}
{"sequence": "CACAGTAG", "binding signal": 0.0684}
{"sequence": "AGGTCAGG", "binding signal": -0.168}
{"sequence": "AGAGATAT", "binding signal": 0.16}
{"sequence": "CTTAAGAA", "binding signal": 0.0746}
{"sequence": "CTTGCTGC", "binding signal": -0.241}
{"sequence": "CAAGTGCG", "binding signal": 0.0336}
{"sequence": "AAGGGGAT", "binding signal": -0.315}
{"sequence": "ACTGAACC", "binding signal": 0.0976}
{"sequence": "ATTCTGTC", "binding signal": 0.152}
{"sequence": "AAGCTTTA", "binding signal": 0.0476}
{"sequence": "GGAAAACA", "binding signal": -0.037}
{"sequence": "ATATCCAG", "binding signal": 0.0693}
{"sequence": "CCTCCCAA", "binding signal": -0.219}
{"sequence": "TAAGCGGA", "binding signal": -0.0509}
{"sequence": "AATCTGTA", "binding signal": 0.326}
{"sequence": "CTGTTGCC", "binding signal": -0.15}
{"sequence": "GTCGAAAC", "binding signal": 0.0241}
{"sequence": "AGGGAGGA", "binding signal": -0.279}
{"sequence": "CGGAAAGA", "binding signal": 0.0118}
{"sequence": "ATCGGTGC", "binding signal": 0.0166}
{"sequence": "ACGCGGCG", "binding signal": -0.352}
{"sequence": "GAATGTGA", "binding signal": -0.00931}
{"sequence": "CGGCTTTA", "binding signal": -0.104}
{"sequence": "CGTGTAAC", "binding signal": 0.164}
{"sequence": "ATGAGTGG", "binding signal": -0.0865}
{"sequence": "AACTTCCA", "binding signal": 0.0197}
{"sequence": "CAAGCGTG", "binding signal": -0.0526}
{"sequence": "AGGTGCAG", "binding signal": -0.204}
{"sequence": "GAGGATTA", "binding signal": -0.0511}
{"sequence": "GATATACA", "binding signal": 0.25}
{"sequence": "CGGTACGC", "binding signal": -0.045}
{"sequence": "AGAATCTA", "binding signal": 0.337}
{"sequence": "CTCGTGCC", "binding signal": -0.185}
{"sequence": "GGAAGTCA", "binding signal": -0.0578}
{"sequence": "CTTAGTAA", "binding signal": 0.189}
{"sequence": "CGGTTTAG", "binding signal": -0.164}
{"sequence": "CAAGGATA", "binding signal": 0.0818}
{"sequence": "CCACTCGG", "binding signal": -0.233}
{"sequence": "ATTTGCGA", "binding signal": 0.173}
{"sequence": "TCGGCGAA", "binding signal": 0.0797}
{"sequence": "AAAAAGAG", "binding signal": -0.106}
{"sequence": "CGGATGAC", "binding signal": -0.0291}
{"sequence": "CGTAAAAG", "binding signal": 0.0563}
{"sequence": "AAGCTTAT", "binding signal": 0.0982}
{"sequence": "GACGCTCA", "binding signal": -0.0574}
{"sequence": "GTTGGTAA", "binding signal": 0.0337}
{"sequence": "CCCCGTAA", "binding signal": -0.135}
{"sequence": "CAGATTAA", "binding signal": 0.115}
{"sequence": "GTGGCCAA", "binding signal": -0.167}
{"sequence": "AACTATAG", "binding signal": 0.331}
{"sequence": "AGGTGGTG", "binding signal": 0.0573}
{"sequence": "AGTGGCGC", "binding signal": -0.221}
{"sequence": "ATACATAT", "binding signal": 0.399}
{"sequence": "CGAACTCG", "binding signal": 0.0764}
{"sequence": "ACTTAGTC", "binding signal": 0.157}
{"sequence": "ATAATCAG", "binding signal": 0.0542}
{"sequence": "ACAGAAGG", "binding signal": -0.105}
{"sequence": "CCTTCGAC", "binding signal": -0.124}
{"sequence": "ATCCCCAA", "binding signal": -0.0597}
{"sequence": "ACGGCAAC", "binding signal": 0.084}
{"sequence": "ACATGCAT", "binding signal": 0.252}
{"sequence": "ACGGCACG", "binding signal": -0.102}
{"sequence": "ATACCCAG", "binding signal": 0.0725}
{"sequence": "CATAATCC", "binding signal": 0.0273}
{"sequence": "AGGTACGA", "binding signal": 0.112}
{"sequence": "AAAGGAAA", "binding signal": -0.328}
{"sequence": "CGCGCGGA", "binding signal": -0.0543}
{"sequence": "CCCTTTAG", "binding signal": -0.19}
{"sequence": "AAATTTCT", "binding signal": 0.186}
{"sequence": "CCACCCAA", "binding signal": -0.261}
{"sequence": "ACGACTGG", "binding signal": -0.175}
{"sequence": "AGAGAGTA", "binding signal": -0.00625}
{"sequence": "AGCGTCGC", "binding signal": -0.181}
{"sequence": "GGGTGGAA", "binding signal": -0.375}
{"sequence": "GCCTATTA", "binding signal": 0.0531}
{"sequence": "AACAGTCT", "binding signal": -0.124}
{"sequence": "CATAATGG", "binding signal": 0.103}
{"sequence": "AAGCCACA", "binding signal": -0.118}
{"sequence": "AGCCGTTC", "binding signal": -0.0447}
{"sequence": "AGTGCGCA", "binding signal": 0.106}
{"sequence": "TGCGAACA", "binding signal": 0.0411}
{"sequence": "ATGTTTGG", "binding signal": 0.135}
{"sequence": "GGCTTGTA", "binding signal": 0.0712}
{"sequence": "CGGGACAG", "binding signal": -0.216}
{"sequence": "GGAGATAC", "binding signal": 0.12}
{"sequence": "CAGCATAG", "binding signal": -0.0981}
{"sequence": "GAAGCACA", "binding signal": -0.102}
{"sequence": "CAGTGGAA", "binding signal": 0.0127}
{"sequence": "GACTGCTA", "binding signal": 0.0596}
{"sequence": "ATGCTGAA", "binding signal": 0.102}
{"sequence": "CGTACGTC", "binding signal": 0.121}
{"sequence": "AGACCGAG", "binding signal": -0.201}
{"sequence": "CGCCATAC", "binding signal": 0.051}
{"sequence": "GTGAGCAC", "binding signal": -0.141}
{"sequence": "ATAACCTG", "binding signal": 0.0388}
{"sequence": "CTTAAGGC", "binding signal": -0.222}
{"sequence": "AAACAAAG", "binding signal": 0.128}
{"sequence": "ATATCCGA", "binding signal": 0.189}
{"sequence": "ACATTTAT", "binding signal": 0.281}
{"sequence": "CCCGAGTC", "binding signal": -0.288}
{"sequence": "CAGTAAGA", "binding signal": 0.228}
{"sequence": "GTGGGAAA", "binding signal": -0.139}
{"sequence": "ATATGGAG", "binding signal": 0.202}
{"sequence": "GACATTTA", "binding signal": 0.0492}
{"sequence": "ACTATTAT", "binding signal": 0.386}
{"sequence": "ACGCATCG", "binding signal": -0.103}
{"sequence": "ATGGTAGA", "binding signal": 0.444}
{"sequence": "CGCCAGCG", "binding signal": -0.182}
{"sequence": "GTGCGCGA", "binding signal": -0.161}
{"sequence": "GGTGTTGA", "binding signal": 0.171}
{"sequence": "GCGTCAAC", "binding signal": -0.201}
{"sequence": "CTCCTCAC", "binding signal": -0.11}
{"sequence": "AGTTGTCC", "binding signal": -0.0321}
{"sequence": "ATCGCGGA", "binding signal": 0.0458}
{"sequence": "ACACGAGG", "binding signal": -0.0207}
{"sequence": "CCTCATGA", "binding signal": -0.228}
{"sequence": "ATTGGAGA", "binding signal": -0.0523}
{"sequence": "GATCAATC", "binding signal": -0.0771}
{"sequence": "GAACATTA", "binding signal": 0.159}
{"sequence": "AAGTGCGA", "binding signal": -0.0736}
{"sequence": "ATACGTTA", "binding signal": 0.138}
{"sequence": "CAAATCAG", "binding signal": 0.0586}
{"sequence": "TCAAGCAA", "binding signal": -0.0617}
{"sequence": "CCCTTTAC", "binding signal": -0.291}
{"sequence": "AAATCTCC", "binding signal": 0.176}
{"sequence": "CAGCGGAG", "binding signal": -0.176}
{"sequence": "AGGACGTC", "binding signal": -0.26}
{"sequence": "AACTGCCT", "binding signal": 0.0301}
{"sequence": "GTTGAGGA", "binding signal": -0.0613}
{"sequence": "AGTGAGCA", "binding signal": -0.0803}
{"sequence": "ATAGTATA", "binding signal": 0.278}
{"sequence": "AAAAGCAG", "binding signal": 0.0313}
